Structures can show the parent of a compound that is named as a salt. ± gives the standard deviation of the averaged measurements. Over roughly 2,000 compounds, “relative cell viability vs DMSO, compound alone” has its median near 1.1; the lowest 2% begin near 0.29. The list shows a part of the results.

These results are taken from the supplement of paper PMC10670038.

This test concerns TE10. The test can be described thus: relative cell viability vs DMSO, compound alone (fraction); TE10 is an esophageal squamous carcinoma line; higher = less cytotoxic. The conditions noted are these: 2 µM; 48 h. The protocol: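 TE10 ESCC cells (1,000/well, 384-well plates) were treated with Selleck bioactive library compounds at 2 uM alone for 48 h. Viability was read by CellTiter-Glo and expressed relative to DMSO wells. Two technical replicates (A, B).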
`C[C@@H](Nc1cc(F)cc(F)c1)c1cc(C(=O)N(C)C)cc2c(=O)cc(N3CCOCC3)oc12` had a relative cell viability of 0.765 ± 0.14.
For `Cc1c(C(=O)NN2CCCCC2)nn(-c2ccc(Cl)cc2Cl)c1-c1ccc(Cl)cc1` [Rimonabant], the relative cell viability was determined as 0.908 ± 0.047.
With `COc1cc2c(cc1OC)CC(=O)N(CCCN(C)C[C@H]1Cc3cc(OC)c(OC)cc31)CC2` [Ivabradine HCl] the figure was 1.13 ± 0.018; with `CN1CC(=O)N2[C@H](c3ccc4c(c3)OCO4)c3[nH]c4ccccc4c3C[C@@H]2C1=O` [Tadalafil], 1.15 ± 0.033.
The same measure for `CCN(C(=O)c1c(O)c2c(Cl)cccc2n(C)c1=O)c1ccccc1` [Laquinimod]: 1.12 ± 0.027; for `CCc1nc(N)nc(N)c1-c1ccc(Cl)cc1` [Pyrimethamine]: 0.754 ± 0.043.
Consider `CC(C)NCC(O)COc1ccc(CCOCC2CC2)cc1` (centres undefined) [Betaxolol hydrochloride (Betoptic)], for which the relative cell viability is 0.752 ± 0.047.
On to `CC(C)(OCc1nn(Cc2ccccc2)c2ccccc12)C(=O)O` [Bindarit], for which the relative cell viability is 1.1 ± 0.053.
For `CCCN1CCCC[C@H]1C(=O)Nc1c(C)cccc1C` [Ropivacaine HCl], the relative cell viability is 1.167 ± 0.0022.
On to `CC(NC(=O)c1ccccc1/N=C/c1c(O)ccc2ccccc12)c1ccccc1` (centres undefined) [Sirtinol], for which the relative cell viability turned out to be 1.09 ± 0.017.
In the case of `Cc1cccc(-c2[nH]c(C(C)(C)C)nc2-c2ccc3c(c2)OCO3)n1`, the relative cell viability is 1.1 ± 0.051.
Regarding `COc1cc(OC2CCN(C)CC2)ccc1Nc1ncc2c(n1)n(C1CCCC1)c(=O)n2C`, the relative cell viability stood at 1.08 ± 0.062.
Molecule `C#CCN[C@@H]1CCc2ccccc21` [Rasagiline Mesylate] came in with a relative cell viability of 1.09 ± 0.062.
Molecule `COc1ccc(NS(=O)(=O)c2sc3ccc(Cl)cc3c2C)cc1N1CCNCC1` returned a relative cell viability of 1.07 ± 0.021.
`CN1c2cc(O)c(N=NC(N)=O)cc2CC1S(=O)(=O)O` (centres undefined) [Carbazochrome sodium sulfonate (AC-17)] registered a relative cell viability of 0.736 ± 0.084.
In turn, `CCOc1nc2cccc(C(=O)OCc3oc(=O)oc3C)c2n1Cc1ccc(-c2ccccc2-c2noc(=O)[nH]2)cc1` [Azilsartan Medoxomil] displayed a relative cell viability of 1.16 ± 0.06.
Molecule `NC(=O)c1ccc(I)c([N+](=O)[O-])c1` [Iniparib (BSI-201)] yielded a relative cell viability of 1.18 ± 0.025.
For the molecule `O=C(O)c1cc(/N=N/c2ccc(S(=O)(=O)Nc3ccccn3)cc2)ccc1O` [Sulfasalazine], the relative cell viability was 1.04 ± 0.026.
With `C=C1c2cccc(O)c2C(O)=C2C(=O)[C@]3(O)C(O)=C(C(N)=O)C(=O)[C@@H](N(C)C)[C@@H]3[C@@H](O)[C@H]12` [Methacycline HCl] the figure was 1.14 ± 0.027.
`C/C(=C\C(=O)OCCCCCCCCC(=O)O)C[C@@H]1OC[C@H](C[C@@H]2O[C@H]2[C@@H](C)[C@H](C)O)[C@@H](O)[C@H]1O` [Mupirocin]: the relative cell viability came out at 1.203 ± 0.0043.
As for `COc1ccc(C2=N[C@@H](c3ccc(Cl)cc3)[C@@H](c3ccc(Cl)cc3)N2C(=O)N2CCNC(=O)C2)c(OC(C)C)c1` [Nutlin-3], the relative cell viability turned out to be 1.21 ± 0.022.
`CN/C(=N\CCSCc1nc[nH]c1C)NC#N` [Cimetidine] had a relative cell viability of 1.01 ± 0.019.
Molecule `COc1cc2ncnc(Nc3cccc(Cl)c3)c2cc1OC` [AG-1478 (Tyrphostin AG-1478)] gave a relative cell viability of 1.06 ± 0.011.
The same measure for `O=c1oc2cc(O)ccc2s1` [Tioxolone]: 1.08 ± 0.018.
Molecule `CS(=O)(=O)c1ccc(-c2nnc(/C=C/c3nnc(-c4ccc(C#N)cc4)o3)n2-c2ccccc2Cl)nc1` returned a relative cell viability of 1.06 ± 0.013.
Consider `c1coc(CNc2ncnc3[nH]cnc23)c1` [Kinetin], for which the relative cell viability came to 0.914 ± 0.12.
The molecule `C[C@]12CCC3=C4CCC(=O)C=C4CC[C@H]3[C@@H]1CC[C@@]2(O)CC#N` [Dienogest] returned a relative cell viability of 1.19 ± 0.024.
Turning to `CCOC(=O)[C@H](CCc1ccccc1)N[C@@H](C)C(=O)N1C(=O)N(C)C[C@H]1C(=O)O` [Imidapril HCl], the relative cell viability was found to be 1.038 ± 0.0027.
Molecule `C[C@@H]1C[C@H]2[C@@H]3CCC4=CC(=O)C=C[C@]4(C)[C@@]3(Cl)[C@@H](O)C[C@]2(C)[C@@]1(OC(=O)c1ccco1)C(=O)CCl` [Mometasone furoate] registered a relative cell viability of 0.95932 ± 0.0006.
`Cc1ccc(NC(=O)C2(c3ccc4c(c3)OC(F)(F)O4)CC2)nc1-c1cccc(C(=O)O)c1` [VX-809 (Lumacaftor)] showed a relative cell viability of 0.817 ± 0.014.
Turning to `Cn1cc(/C=C2\C(=O)Nc3cccnc32)c2ccccc21`, the relative cell viability came out at 1.076 ± 0.0071.
`OCCOc1ccc(/C(=C(/CCCl)c2ccccc2)c2ccccc2)cc1` [Ospemifene] showed a relative cell viability of 1.1 ± 0.011.
The same measure for `CC(C)OC(=O)C(C)(C)Oc1ccc(C(=O)c2ccc(Cl)cc2)cc1` [Fenofibrate]: 1.02 ± 0.026; for `CCn1c(-c2nonc2N)nc2c(C#CC(C)(C)O)ncc(OC[C@H]3CCCNC3)c21`: 0.77315 ± 0.00057.
`O=S(=O)(O)Oc1ccc(C(c2ccc(OS(=O)(=O)O)cc2)c2ccccn2)cc1` [Sodium Picosulfate]: the relative cell viability was found to be 1.05 ± 0.029.
The molecule `CN1C(=O)C(Cc2c[nH]c3ccccc23)NC1=S` (centres undefined) [Necrostatin-1] registered a relative cell viability of 1 ± 0.073.
Consider `Cc1cc2c(s1)Nc1ccccc1N=C2N1CCN(C)CC1` [Olanzapine], for which the relative cell viability turned out to be 1.1 ± 0.03.
On to `CC(=NNC(=S)N1CCC1)c1ccccn1`, for which the relative cell viability came out at 0.489 ± 0.042.
For the molecule `Cc1cn(-c2cc(NC(=O)c3ccc(C)c(Nc4nccc(-c5cccnc5)n4)c3)cc(C(F)(F)F)c2)cn1` [Nilotinib (AMN-107)], the relative cell viability was 1.18 ± 0.14.
The same measure for `NC(=O)c1ccc(-c2nc(-c3ccccn3)c(-c3ccc4c(c3)OCO4)[nH]2)cc1`: 1.3 ± 0.069; for `C[C@@H](O[C@H]1OCCN(Cc2n[nH]c(=O)[nH]2)[C@H]1c1ccc(F)cc1)c1cc(C(F)(F)F)cc(C(F)(F)F)c1` [Aprepitant]: 1.146 ± 0.011.
As for `CCCNC(=O)Nc1ccc(Oc2ncnc3cc(OC)c(OC)cc23)cc1Cl`, the relative cell viability is 0.845 ± 0.029.
The same measure for `CC(=O)c1c(C)c2cnc(Nc3ccc(N4CCNCC4)cn3)nc2n(C2CCCC2)c1=O`: 1.116 ± 0.0015.
Consider `CNC(=O)c1cc(Oc2ccc3nc(N[C@@H]4CCCC[C@H]4O)sc3c2)ccn1`, for which the relative cell viability amounted to 0.956 ± 0.081.
With `CC(C)(C)c1ccc(S(=O)(=O)/C=C/C#N)cc1`, the relative cell viability is 0.0635 ± 0.0029.
The same measure for `CC(=O)O[C@H]1C(=O)[C@@]2(C)[C@H]([C@H](OC(=O)c3ccccc3)[C@]3(O)C[C@H](OC(=O)[C@H](O)[C@@H](NC(=O)c4ccccc4)c4ccccc4)C(C)=C1C3(C)C)[C@]1(OC(C)=O)CO[C@@H]1C[C@@H]2O` [Paclitaxel]: 0.72 ± 0.02; for `NC(=O)c1cccc(-c2cccc(OC(=O)NC3CCCCC3)c2)c1`: 1.17 ± 0.024; for `CN1CCC(Nc2nc(Nc3ccc(Oc4ccccc4)cc3)c3c(=O)[nH]cc(Br)c3n2)CC1`: 1.03 ± 0.017.
Turning to `CN(C(Cc1ccc(OS(=O)(=O)c2cccc3cnccc23)cc1)C(=O)N1CCN(c2ccccc2)CC1)S(=O)(=O)c1cccc2cnccc12` (centres undefined), the relative cell viability came out at 1.05 ± 0.03.
